These are yes or no findings as the source states them, for the method shown. Some binding calls cover weakened binding; strength is not graded here.
Experiments:
Assay in all cases: tandem affinity co-purification (anti-Flag resin, then Strep-Tactin resin) with SDS-PAGE; three subunits co-expressed in Expi293F; complex purified by 3×Flag on Vtc3 and 2×Strep on Vtc4; no InsP6 added, 0.02% DDM
Vtc3 = biological target: T1, Vtc3 (Baker's yeast, UniProt Q02725 1-835)
T1 construct: Vtc3, yeast, UniProt Q02725; codon-optimized DNA in the pMlink vector; source: Expi293F cells, transiently cotransfected with the Vtc1 and Vtc4 plasmids; purified as part of the VTC complex (anti-Flag resin, Strep-Tactin resin; SEC for the cryo-EM sample); not shown: 3×Flag, N-terminal, kept
T1 sequence: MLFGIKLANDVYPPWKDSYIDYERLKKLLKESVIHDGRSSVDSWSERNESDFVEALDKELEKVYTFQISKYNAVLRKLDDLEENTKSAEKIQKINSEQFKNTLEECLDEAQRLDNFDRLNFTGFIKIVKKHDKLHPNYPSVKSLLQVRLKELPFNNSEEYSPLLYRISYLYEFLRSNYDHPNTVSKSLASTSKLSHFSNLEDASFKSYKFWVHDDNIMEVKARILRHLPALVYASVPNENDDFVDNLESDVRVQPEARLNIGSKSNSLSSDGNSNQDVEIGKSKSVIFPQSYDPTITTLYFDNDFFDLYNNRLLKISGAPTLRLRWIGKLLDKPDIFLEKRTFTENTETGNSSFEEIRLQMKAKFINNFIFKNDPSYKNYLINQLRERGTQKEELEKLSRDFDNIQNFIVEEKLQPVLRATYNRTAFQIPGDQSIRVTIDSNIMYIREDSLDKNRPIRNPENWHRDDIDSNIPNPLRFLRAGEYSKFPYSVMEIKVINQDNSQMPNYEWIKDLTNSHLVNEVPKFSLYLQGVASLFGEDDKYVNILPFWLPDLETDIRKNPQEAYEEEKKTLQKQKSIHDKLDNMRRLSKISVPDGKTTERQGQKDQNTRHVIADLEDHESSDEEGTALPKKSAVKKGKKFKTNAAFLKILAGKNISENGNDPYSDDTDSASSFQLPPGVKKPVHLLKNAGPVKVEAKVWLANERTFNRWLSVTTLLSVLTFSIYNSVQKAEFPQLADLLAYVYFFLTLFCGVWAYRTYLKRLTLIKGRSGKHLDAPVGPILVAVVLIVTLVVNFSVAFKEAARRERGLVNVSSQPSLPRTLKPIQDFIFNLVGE

Protein sequences, listed by entry. Tags and fused reporters are not part of them. Lines headed by an entry give the natural chain unless they say otherwise; changes in a name come on top.
UniProt P47075: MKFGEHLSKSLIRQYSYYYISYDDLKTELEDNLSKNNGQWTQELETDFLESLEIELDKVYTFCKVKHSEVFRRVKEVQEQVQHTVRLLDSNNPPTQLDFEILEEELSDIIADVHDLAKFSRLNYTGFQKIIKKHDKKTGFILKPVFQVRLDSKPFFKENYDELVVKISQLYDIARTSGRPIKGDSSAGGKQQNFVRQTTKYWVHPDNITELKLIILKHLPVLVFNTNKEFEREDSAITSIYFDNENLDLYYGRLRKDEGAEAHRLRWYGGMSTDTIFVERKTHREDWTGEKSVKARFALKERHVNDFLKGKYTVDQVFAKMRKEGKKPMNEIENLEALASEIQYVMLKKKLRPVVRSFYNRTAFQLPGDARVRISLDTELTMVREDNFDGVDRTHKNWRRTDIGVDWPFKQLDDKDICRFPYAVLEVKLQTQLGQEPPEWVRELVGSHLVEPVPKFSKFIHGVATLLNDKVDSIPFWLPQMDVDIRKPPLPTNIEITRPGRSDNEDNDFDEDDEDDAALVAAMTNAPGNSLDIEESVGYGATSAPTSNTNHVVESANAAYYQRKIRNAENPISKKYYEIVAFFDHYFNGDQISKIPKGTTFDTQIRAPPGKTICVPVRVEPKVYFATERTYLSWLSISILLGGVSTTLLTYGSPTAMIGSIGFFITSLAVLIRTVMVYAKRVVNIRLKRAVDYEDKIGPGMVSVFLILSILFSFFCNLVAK

[1] = biological target: T2, Vtc3_(K694A/K698A/R705A/R709A) (Baker's yeast) (UniProt Q02725)
T2 sequence: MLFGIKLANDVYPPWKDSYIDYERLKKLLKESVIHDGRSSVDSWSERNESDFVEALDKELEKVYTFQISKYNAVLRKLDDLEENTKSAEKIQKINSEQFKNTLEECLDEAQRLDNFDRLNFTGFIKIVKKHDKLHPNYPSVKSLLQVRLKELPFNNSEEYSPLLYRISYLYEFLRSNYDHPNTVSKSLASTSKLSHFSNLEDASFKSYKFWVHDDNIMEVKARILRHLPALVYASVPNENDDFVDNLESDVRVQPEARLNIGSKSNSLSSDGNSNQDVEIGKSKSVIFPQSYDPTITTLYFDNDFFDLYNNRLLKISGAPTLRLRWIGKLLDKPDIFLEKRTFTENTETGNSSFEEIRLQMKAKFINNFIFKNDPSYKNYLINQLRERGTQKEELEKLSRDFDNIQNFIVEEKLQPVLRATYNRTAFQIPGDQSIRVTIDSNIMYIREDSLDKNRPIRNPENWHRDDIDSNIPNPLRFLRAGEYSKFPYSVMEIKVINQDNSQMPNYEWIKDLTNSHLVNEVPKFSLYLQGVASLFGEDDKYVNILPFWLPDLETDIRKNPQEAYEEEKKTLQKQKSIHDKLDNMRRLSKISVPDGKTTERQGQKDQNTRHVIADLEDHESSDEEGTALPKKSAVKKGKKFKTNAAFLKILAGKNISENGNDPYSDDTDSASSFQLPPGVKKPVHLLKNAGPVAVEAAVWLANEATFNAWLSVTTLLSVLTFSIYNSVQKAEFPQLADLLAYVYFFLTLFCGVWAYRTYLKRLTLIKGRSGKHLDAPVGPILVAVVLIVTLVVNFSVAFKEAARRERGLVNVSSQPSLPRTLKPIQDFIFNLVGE

[2] = biological target: Vtc4_(Y22F/K26A/K133A) (Baker's yeast) (UniProt P47075)
[3] = biological target: Vtc4_(K622A/R629A) (Baker's yeast) (UniProt P47075)
Vtc4 (Baker's yeast) = Vtc4 (Baker's yeast) (UniProt P47075)
[4] = biological target: Vtc4_(K129A/K132A/K136A) (Baker's yeast) (UniProt P47075)
[5] = biological target: Vtc4_(K300A/R302A/K320A) (Baker's yeast) (UniProt P47075)

Measured: binding

Vtc4 (from UniProt P47075 2-721)
binds: Vtc3 | [1]

B1: Vtc1 (natural protein, Baker's yeast)
chain: SSAPLLQRTPGKKIALPTRVEPKVFFANERTFLSWLNFTVMLGGLGVGLLNFGDKIGRVSAGLFTFVAMGTMIYALVTYHWRAAAIRRRGSGPYDDRLGPTLLCFFLLVAVIINFILRLKYNDANTKL
notes: Vtc1, yeast, UniProt P40046; codon-optimized DNA in the pMlink vector; Three copies of Vtc1 stand in the Vtc1/Vtc3/Vtc4 complex (3:1:1); also called Vtc1A; Vtc1B; source: Expi293F cells, transiently cotransfected with the Vtc3 and Vtc4 plasmids; purified as part of the VTC complex (anti-Flag resin, Strep-Tactin resin; SEC for the cryo-EM sample)
not listed: Vtc3
binds: all other assays above
